Out of some 350,000 compounds screened, about 260 (0.074%) were called active. The inconclusive results got no clear call from the source; some entries with a clear call stand among them for comparison. The call rests on the fitted dose curve; in most records, active means well fitted inhibition curve with a large enough effect; inconclusive means small, poorly fitted or top-dose-only effect; inactive means no such curve, though single readings can be large or run the other way. A potency beside an inconclusive call is a rough fit, not a confirmed value. Where a SMILES comes first, the peptide text is derived from it. [ ]: non-standard residue; d: D form. d2Nal = N[C@H](Cc1ccc2ccccc2c1)C(=O)O; Aib = CC(C)(N)C(=O)O
biological target: Ferritin light chain (Equus caballus) (UniProt P02791); experiment: qHTS Assay for Identification of Novel General Anesthetics; details: apoferritin/1-aminoanthracene competitive binding, fluorescence; series mostly up to 77.5 µM; further: nearly all actives have a fitted effect of over 20% in size
Sequence of UniProt P02791 (P02791 whole entry, looked up): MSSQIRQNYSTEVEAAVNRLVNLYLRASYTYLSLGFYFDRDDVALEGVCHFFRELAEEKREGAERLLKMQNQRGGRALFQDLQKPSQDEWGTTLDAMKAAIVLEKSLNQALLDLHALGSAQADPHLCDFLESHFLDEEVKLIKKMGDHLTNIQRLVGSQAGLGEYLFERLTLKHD
Method in brief: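 In PBS, apoferritin at 10 uM is loaded with 1-AMA from a 50% saturated solution. After 10 min of compound exposure at ambient temperature, reduced 535 nm fluorescence indicates probe displacement.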
Potency means the concentration at half of the fitted maximal effect; tags describe the fitted curve by direction and shape.

| Compound | Potency |
| --- | --- |
| c1ccc(CCSc2ncnc3nc[nH]c23)cc1 | inactive |
| Cc1ccc(NC(=O)c2c(C)nn(-c3ccccc3)c2Cl)cc1 | inconclusive: 28.2 µM [inhibitor, partial curve] |
| O=C(Nc1ccccc1)N1CCCC(c2nc(-c3cccs3)no2)C1 (centres undefined) | inconclusive: 25.1 µM [inhibitor, partial curve] |
| CC(C)NC(=O)CC(=O)N/N=C/c1ccc(Br)cc1 | inconclusive: 28.2 µM [inhibitor, partial curve] |
| CS(=O)(=O)c1cc([N+](=O)[O-])c(Sc2nc3ccccc3[nH]2)c([N+](=O)[O-])c1 | inactive |
| CC(/C=C1\SC(=S)N(C(C(=O)O)C(C)C)C1=O)=C\c1ccccc1 (centres undefined) | inconclusive: 31.6 µM [inhibitor, partial curve] |
| COc1ccccc1C(=O)NCC(=O)N/N=C/c1cn[nH]c1-c1ccccc1 | inconclusive: 35.5 µM [inhibitor, single point] |
| COC(=O)c1cc2c(-c3ccccc3)cc3ccccn3c-2c1C(=O)OC | inconclusive: 35.5 µM [inhibitor, partial curve] |
| CC(C)(N)C(=O)N[C@@H](Cc1cnc[nH]1)C(=O)N[C@H](Cc1ccc2ccccc2c1)C(=O)N[C@H](Cc1ccccc1)C(=O)N[C@@H](CCCCN)C(N)=O (H-[Aib]H[d2Nal][dF]K-NH2) | inactive |
| CCOC(=O)Nc1ccc2c(c1)N(C(=O)CCN1CCOCC1)c1ccccc1S2=O (centres undefined) | inactive |
| Nc1nc(SCc2ccccc2Cl)n[nH]1 | inconclusive: 50.1 µM [inhibitor, partial curve, poor fit] |
| CCc1nc(N2CCCC(C)C2)c2oc3ccccc3c2n1 (centres undefined) | inactive |
| O=C(Cn1nnc(-c2ccccc2Cl)n1)N/N=C/c1ccc2c(c1)OCO2 | inconclusive: 5.01 µM [inhibitor, full curve] |
| CN(C)c1oc(-c2ccccc2Cl)nc1P(=O)(c1ccccc1)c1ccccc1 | inactive |
| Cc1ccc(S(=O)(=O)N2CCSC2c2ccco2)cc1 (centres undefined) | inconclusive: 39.8 µM [inhibitor, single point] |
| CCOc1cc(S(=O)(=O)NCCc2c(C)[nH]c3ccc(C)cc23)ccc1Br | inactive |
| COc1ccccc1OCC(=O)NC1CCCCCC1 | inconclusive: 11.2 µM [inhibitor, partial curve] |
| COc1cccc(C(=O)Nc2ccccc2)c1 | inactive |
| CC(=O)c1cccc(NS(=O)(=O)c2cccc(S(=O)(=O)c3ccc(Br)cc3)c2)c1 | inconclusive: 22.4 µM [inhibitor, single point] |
| CC1CCN(C(=O)COc2ccccc2F)CC1 | inconclusive: 39.8 µM [inhibitor, partial curve] |
| O=C(Nc1ccc(C(F)(F)F)cc1)c1csc(-c2ccncc2)n1 | inconclusive: 35.5 µM [inhibitor, single point] |
| C=CCNc1nc(Cl)nc(NC2CCCCC2)n1 | inconclusive: 31.6 µM [inhibitor, partial curve] |
| Cc1cc(C)cc(N2C(=O)C3C4C=CC(C4)C3C2=O)c1 (centres undefined) | inconclusive: 14.1 µM [inhibitor, partial curve, poor fit] |

| Compound | Potency |
| --- | --- |
| O=C(NCCCN1CCCCC1)c1ccc2c(c1)NC(=O)C(N1CCCCC1)S2 (centres undefined) | inconclusive: 31.6 µM [inhibitor, partial curve] |
| CCOc1ccc(NC(=O)CN2C(=O)CSc3ccc(S(=O)(=O)N4CCOCC4)cc32)cc1 | inconclusive: 31.6 µM [inhibitor, partial curve] |
| CCC(CC)C(=O)Nc1nnc(S(=O)(=O)N2CCCc3ccccc32)s1 | inconclusive: 28.2 µM [inhibitor, partial curve] |
| Cc1ccc(C)c(NS(=O)(=O)c2cc(C(=O)NCc3ccco3)ccc2C)c1 | inconclusive: 28.2 µM [inhibitor, single point] |
| Cc1ccc2c(c1)nnn2C1CCN(S(=O)(=O)c2ccc(C(=O)N3C(C)CCCC3C)cc2)CC1 (centres undefined) | inconclusive: 6.31 µM [inhibitor, full curve, poor fit] |
| COC(=O)c1c(CSc2ccc(Cl)cc2)noc1C(=O)NCc1ccco1 | inconclusive: 35.5 µM [inhibitor, partial curve] |
| CC1CCCC(C)N1C(=O)CSc1ncccn1 (centres undefined) | inconclusive: 35.5 µM [inhibitor, single point] |
| O=C(CN1c2ccccc2S(=O)(=O)c2ccccc21)Nc1cccc(C(F)(F)F)c1 | inactive |
| COc1ccc(Br)cc1CN1CCN(Cc2c[nH]c3ccccc23)CC1 | inactive |
| O=C(CN1CCN(C/C=C/c2ccccc2)CC1)NC(=O)NC1CCCCC1 | inactive |
| COC(=O)c1ccc(NC(=O)CCc2c(C)nn(-c3ccc(N4CCCCC4)nn3)c2C)cc1 | inactive |
| Cc1cc(C)c(C)c(/C=C(/C#N)C(N)=S)c1C | inconclusive: 3.98 µM [inhibitor, full curve, poor fit] |
| COc1cccc(CN(C)C(=S)Nc2ccc(C)c(C)c2)c1 | inconclusive: 31.6 µM [inhibitor, partial curve] |
| COc1ccc(/C=N/N2CCOCC2)cc1COc1ccc(Cl)cc1 | inactive |
| Cc1cccc2sc(N(CCN(C)C)C(=O)/C=C/c3cccs3)nc12 | inactive |
| S=c1[nH]nc(Cc2ccc(Br)cc2)n1/N=C/c1ccc(Cl)cc1 | inconclusive: 35.5 µM [inhibitor, partial curve] |
| COC(=O)c1nn(-c2ccccc2)c(Sc2ccc(Br)cc2)c1/C=N/O | inconclusive: 35.5 µM [inhibitor, partial curve] |
| CC1CCCC(NC(=O)COC(=O)c2c[nH]c(=O)[nH]c2=O)C1C (centres undefined) | inconclusive: 50.1 µM [inhibitor, partial curve] |
| CCCCNc1cc(C)nc(NCc2ccccc2)n1 | inconclusive: 15.8 µM [inhibitor, partial curve] |
| COC(=O)c1cccc(CN2C(=O)SC(Nc3ccc(C)cc3)C2=O)c1 (centres undefined) | inconclusive: 12.6 µM [inhibitor, partial curve] |
| Cc1cccc(NC(=S)Nc2ccc(Oc3ccccc3)cc2)n1 | inactive |
| CCC1Oc2ccccc2N(Cc2ccccc2C)C1=O (centres undefined) | inconclusive: 25.1 µM [inhibitor, partial curve] |
| CCN(Cc1ccccc1)c1ccc(/C=N/N=C(N)N)cc1 | inactive |

| Compound | Potency |
| --- | --- |
| COc1ccccc1Oc1ccc2c(c1)C(=O)N(c1cccc(O)c1)C2=O | inconclusive: 35.5 µM [inhibitor, partial curve] |
| CCC1(COC(NC(=O)c2cccnc2)(C(F)(F)F)C(F)(F)F)COC1 | inconclusive: 17.8 µM [inhibitor, partial curve] |
| CCCCOc1cccc(C(=O)NC(=S)Nc2ccc(Cl)c(C(=O)O)c2)c1 | inactive |
| Cc1oc(-c2ccccc2F)nc1CS(=O)CC(=O)NCc1ccc2c(c1)OCO2 (centres undefined) | inconclusive: 22.4 µM [inhibitor, partial curve] |
| CCOc1ccc(S(=O)(=O)NCCc2cn3ccccc3n2)cc1 | inactive |
| Cc1ccc(OCc2nc(-c3ccccn3)n[nH]2)cc1 | inactive |
| CC1=C(C(=O)OC(C)C)C(c2ccc(Cl)cc2)n2c(s/c(=C\c3ccc(OCC(=O)O)cc3)c2=O)=N1 (centres undefined) | inconclusive: 50.1 µM [inhibitor, single point] |
| CCOC(=O)c1c(N)sc(C(O)(C(F)(F)F)C(F)(F)F)c1-c1ccc(F)cc1 | inconclusive: 22.4 µM [inhibitor, partial curve] |
| CCOc1ccc2c(c1)c(=O)c(S(=O)(=O)c1ccc(C)cc1)cn2Cc1ccccc1Cl | inconclusive: 10 µM [inhibitor, partial curve] |
| CC1Cc2ccccc2N1C(=O)CN1CCc2ccccc2C1 (centres undefined) | inconclusive: 28.2 µM [inhibitor, partial curve] |
| CC(=O)Nc1nonc1-c1nnc(SCC(=O)Nc2ccc(C)c(Cl)c2)n1C | inconclusive: 35.5 µM [inhibitor, single point] |
| CC1CCc2cc(F)ccc2N1C(=O)C1(C)CC1(Cl)Cl (centres undefined) | inconclusive: 25.1 µM [inhibitor, partial curve] |
| O=C(Cn1nc(-c2ccc(Cl)cc2)ccc1=O)NCCc1ccccc1 | active: 7.94 µM |
| CC(=O)N1CCN(c2ccc(NCc3ccc(C)cc3)cc2)CC1 | inconclusive: 28.2 µM [inhibitor, partial curve] |
| Nc1cc(Cl)ccc1Oc1ccc(Cl)cc1 | inconclusive: 20 µM [inhibitor, partial curve] |
| CC(C)(C)C1CCC(=NNc2ncc(C(F)(F)F)cc2Cl)CC1 (centres undefined) | inconclusive: 35.5 µM [inhibitor, single point] |
| C/C(=N/NC(=O)c1ccc(Cl)s1)c1cccnc1 | inconclusive: 31.6 µM [inhibitor, partial curve] |
| COc1cccc(N2C(=O)C3CCCN3C2c2ccc(N(C)C)cc2)c1 (centres undefined) | inconclusive: 25.1 µM [inhibitor, partial curve] |
| O=C(Nc1ccccc1F)c1ccc(COc2ccc(Cl)cc2Cl)o1 | inconclusive: 25.1 µM [inhibitor, partial curve] |
| CCNc1nc(N)nc(-c2cc(Cl)ccc2O)n1 | inactive |
| C=C(C)C(=O)Nc1cccc(C2=NOC3(C2)C[C@@H](C(N)=O)N(C(=O)c2cc([N+](=O)[O-])cc([N+](=O)[O-])c2C)C3)c1 (some centres undefined) | inconclusive: 35.5 µM [inhibitor, partial curve] |
| O=C(O)c1cccc(-n2cc(-c3cccc(C(F)(F)F)c3)cn2)c1 | inactive |
| Cc1cccc(NC(=O)Cn2nc([N+](=O)[O-])c(Br)c2C)n1 | inconclusive: 20 µM [inhibitor, single point] |

Source: PubChem BioAssay AID485281 (National Center for Advancing Translational Sciences (NCATS), 2010)
